Some of the results follow. At the low end of the ranking the order means little.

In the experiment the test system is T1, GST-NbGlk1(82-244).
T1 sequence: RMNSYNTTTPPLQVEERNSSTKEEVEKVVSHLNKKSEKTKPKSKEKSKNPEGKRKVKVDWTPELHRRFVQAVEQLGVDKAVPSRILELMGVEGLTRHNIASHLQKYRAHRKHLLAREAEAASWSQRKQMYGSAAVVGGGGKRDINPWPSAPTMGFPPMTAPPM
In words: protein-binding microarray.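 Also: rank-based score ranging −0.5 to +0.5 with E above 0.45 taken as significant binding.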 To be noted: NbGlk1 is a Golden2-like transcription factor of Nicotiana benthamiana; high values mean tight binding; most listed sequences are background and not binding sites; double strand, one strand shown.
Sequence AAGCATAG gave a binding signal of -0.0738 E-score.

Sequence ACTACCCG registered a binding signal of -0.0898 E-score.

For the sequence AACTATAA, the binding signal worked out at 0.0486 E-score. The figure for ATGGTTAC is -0.124 E-score. The figure for ACGCATAC is 0.061 E-score. The figure for AATCCCGA is 0.358 E-score; for AAATGCGC it is 0.106 E-score; for ATTTCCTA it is 0.358 E-score.

With AAAGCATA, the binding signal was -0.0316 E-score.

Regarding AAAGAGGT, the binding signal is -0.0687 E-score. On to AGCACGAG, for which the binding signal was -0.146 E-score. The figure for ATCATCAC is 0.118 E-score; for ACATGCCG it is -0.102 E-score; for AACAGAAA it is 0.183 E-score. Under AAGCGTAA stands 0.121 E-score; under AGTACCGA, -0.118 E-score.

As to AATCAAAC, the binding signal came out at 0.25 E-score. Under AAGTTCCA stands -0.168 E-score; under AAATAATA, 0.227 E-score; under AGTCGTTC, -0.0623 E-score. The figure for AAGGCGGT is -0.159 E-score; for ATAAATGG it is -0.077 E-score. The figure for ACGTACAT is -0.0329 E-score; for ATTCTCGC it is 0.232 E-score; for AAGGAATC it is 0.396 E-score.

In turn, AGGTGAGC gave a binding signal of -0.148 E-score.

AGCCGTAA: the binding signal is -0.056 E-score. The sequence ACTTGGCA yielded a binding signal of -0.244 E-score. Under AATCTGCT stands 0.37 E-score; under ATTTCATA, 0.353 E-score; under AAAGCCAT, -0.187 E-score. Under ACGGCCAG stands -0.194 E-score; under ACGATTGC, 0.345 E-score. With CAGATCCG, the binding signal stood at 0.266 E-score. Under AAAGATCC stands 0.292 E-score; under ACAACGAA, 0.0437 E-score; under AAGTCACG, -0.0811 E-score. AGACTGTA showed a binding signal of -0.127 E-score.

ATGCCCCA registered a binding signal of -0.139 E-score. Under ATGGGAGA stands -0.0374 E-score; under AGTCGAAC, -0.152 E-score; under ACAAAAGA, 0.0752 E-score.

AGTTTTAT: the binding signal amounted to 0.0696 E-score.

Sequence AATTGGGA came in with a binding signal of 0.0189 E-score. The figure for ATCGGCCG is 0.0725 E-score. The figure for AGCGTCTG is -0.0542 E-score; for ATGGCCCG it is -0.353 E-score. AAGAACTT had a binding signal of -0.0502 E-score. Consider ATTGATGA, for which the binding signal was -0.0144 E-score. Under ATTCCCGA stands 0.333 E-score; under ATAAATTA, 0.187 E-score. AGCCATGC: the binding signal is -0.272 E-score.

As to AGCAGAAG, the binding signal is -0.295 E-score. Under ACAGAGTG stands -0.154 E-score; under AAACACGA, 0.14 E-score. Under AGCTTAGC stands -0.117 E-score; under AGCATCAA, 0.0211 E-score; under ACTATCAT, 0.153 E-score. The figure for AGCATCAG is -0.0305 E-score. Turning to AGTGTTCC, the binding signal was -0.158 E-score. The sequence AAAGAGCG showed a binding signal of -0.0069 E-score. Under ACAACCTG stands -0.172 E-score; under ACTTCGTG, -0.0465 E-score. Consider CAGATTTA, for which the binding signal stood at 0.276 E-score. The figure for CAACGTCG is -0.115 E-score; for AGTTGTCG it is -0.102 E-score; for ATAAGACG it is -0.0889 E-score.

In the case of ACACTCGG, the binding signal was -0.108 E-score.

AAGCACCG registered a binding signal of -0.115 E-score. Under ACCACGTA stands -0.0477 E-score; under ACACTCGA, -0.124 E-score; under ACGGCCAC, -0.299 E-score. The figure for CAACAGCG is -0.0646 E-score; for AAAATCGT it is 0.39 E-score; for ATTCAACA it is 0.0683 E-score.

Sequence AATGCACG yielded a binding signal of -0.169 E-score. The figure for ACCTGATG is 0.0193 E-score; for ACGCCCGG it is -0.313 E-score; for CAAGCCGG it is -0.216 E-score.

Consider ACCGACGT, for which the binding signal was -0.0258 E-score. The figure for AAAACGTA is 0.165 E-score; for AGTAACAG it is -0.0794 E-score. Consider AGTTCGCC, for which the binding signal is -0.138 E-score. Sequence AGACTTGA gave a binding signal of -0.108 E-score.

On to ATCACAAA, for which the binding signal stood at 0.225 E-score. For AACAATGA, the binding signal is -0.00435 E-score. AGGTTATA registered a binding signal of -0.0423 E-score. The figure for ACGGACGT is -0.0226 E-score; for ACTCCGGA it is -0.0762 E-score; for AGGTCGGC it is -0.321 E-score. On to CAAAGACG, for which the binding signal is -0.0469 E-score. The figure for ATAGCCGC is -0.0878 E-score; for ATCTTGAC it is 0.272 E-score. Under AACCCCCG stands -0.235 E-score; under AGAACGTA, -0.0132 E-score.

For the sequence ACCGAACC, the binding signal is -0.0587 E-score. As to AGTCCTCA, the binding signal was -0.14 E-score.

As for ATAAAGAA, the binding signal came to 0.099 E-score. The figure for AACCTAGG is -0.0178 E-score; for ACGGGAAC it is -0.261 E-score; for CAAGAGCG it is -0.0565 E-score. Under AACTGTGA stands 0.0957 E-score; under ACGCCAGT, -0.262 E-score; under AGACTTGG, -0.209 E-score. Under AGCACGTA stands 0.0221 E-score. For CACACGCC, the binding signal was -0.14 E-score. AGCTCTGA showed a binding signal of -0.129 E-score. Under ATTATTAC stands 0.253 E-score; under AGAAATTG, 0.139 E-score; under AGCCGACG, -0.167 E-score.

In turn, AGGTCGAC registered a binding signal of -0.194 E-score. ATCCGGGC yielded a binding signal of 0.118 E-score. AACAGCTC had a binding signal of -0.0881 E-score. The figure for ACATTCGC is -0.0117 E-score; for AATGACCA it is -0.185 E-score; for AATTTGAG it is 0.117 E-score. As to ACACCGCC, the binding signal was -0.0477 E-score.

On to ACCCGATA, for which the binding signal came to 0.104 E-score. Under ACTCTAAA stands 0.129 E-score; under ATTAGCCC, -0.185 E-score; under CACCGGTG, -0.263 E-score. The figure for ATCCCAGG is -0.00596 E-score. Under ACCGGTTC stands -0.187 E-score; under AGGTGGTC, -0.27 E-score; under AATTCGGG, 0.154 E-score. Sequence ACAGCTTA displayed a binding signal of -0.131 E-score. In turn, ACGGACAG gave a binding signal of -0.114 E-score. The figure for ATTAGCTC is 0.0523 E-score; for ACCGGTTG it is -0.29 E-score; for CAGATATG it is 0.393 E-score. Under AGCGAGCC stands -0.309 E-score; under ATCTGGCG, 0.306 E-score; under ACTCTTAT, 0.0778 E-score.

With ACTAAAGC, the binding signal was -0.247 E-score. As for CACCAGCG, the binding signal is -0.199 E-score. Under AAGCTAAA stands 0.0161 E-score; under ACTATGAC, -0.082 E-score; under AAGGAATA, 0.168 E-score.

ATATCAAT came in with a binding signal of 0.281 E-score. The figure for ATGTCTTC is -0.102 E-score. Under ACAGTCGG stands -0.0618 E-score; under ATACCCTA, 0.146 E-score; under ATGGTGAG, -0.0314 E-score. AAAGCTGC: the binding signal is -0.14 E-score.

Turning to CAACGGAG, the binding signal was -0.185 E-score. The figure for AGAGGCAA is -0.0585 E-score. As to AGAGAGCC, the binding signal is -0.313 E-score. The figure for ATGAATTG is 0.162 E-score; for ATTAGTTC it is -0.0948 E-score.

Regarding ACATATCG, the binding signal is 0.226 E-score. The figure for ATCTTTGG is 0.304 E-score; for AATCGGCG it is 0.219 E-score; for CACTGTGG it is -0.0646 E-score. Under AGGGCTAG stands -0.262 E-score; under ACCGCGAT, 0.295 E-score; under ACGAGAGA, 0.0637 E-score. Under ATCTAGCA stands 0.322 E-score; under AGGCGCAG, -0.128 E-score. Sequence AACGTCAG had a binding signal of -0.114 E-score. Under ATAGGTAC stands -0.137 E-score; under ACAGCGTC, -0.287 E-score. The figure for CACAAACG is -0.0826 E-score; for ATCCCGCC it is 0.175 E-score. The figure for AAGTAATG is -0.0469 E-score.

Sequence AACAGTGC gave a binding signal of -0.0192 E-score. Sequence CAACCCCC showed a binding signal of -0.319 E-score. The figure for AGGGGGGG is -0.353 E-score; for AGTCCCAC it is -0.236 E-score; for ATATAACA it is 0.214 E-score. Under CAATACTG stands 0.0826 E-score.

AGCCAAAC had a binding signal of -0.191 E-score. Under AGTGGACG stands -0.137 E-score.

These data come from PMC5836133.
